Experimental data reported in ChEMBL document CHEMBL1201862, “PubChem BioAssay data set” (2004).
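Briefly, cells in 96-well plates were exposed to five compound concentrations for 48 h, and endpoints were estimated by linear interpolation. GI50 = concentration required for 50% inhibition of growth.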 Activity calls are given as the source filed them. Rule as the data show it: active = GI50 up to about 1.1 µM and inactive = higher.

system: NCI-H322M; assay: NCI-60 cell line screen, 48 h

Row | SMILES | GI50
1 | COC1(Cc2ccccc2)C(=O)c2ccccc2N1C(C)=O (stereo unspecified) | inactive: > 100 µM
2 | CN1C(=O)C(=CNc2ccccc2Cl)C(=O)N(C)C1=O | inactive: 31.6 µM
3 | COC(=O)CNC(=O)CNC(=O)CSc1nnc(COc2ccc(Cl)cc2)n1-c1ccccc1 | inactive: 56.9 µM
4 | CN(C)c1ccc(C2SCC(=O)N2c2nc3cc4sc(N5C(=O)CSC5c5ccc(N(C)C)cc5)nc4cc3s2)cc1 (stereo unspecified) | inactive: 60.3 µM
5 | CCOc1cc2c(cc1O)/C(=N\N)C[C@@H]1[C@@H]2CC[C@]2(C)[C@@H](O)CC[C@@H]12 | inactive: 13.3 µM
6 | CC1CC2(CC[C@@H]1O)OCCO2 (stereo partly specified) | inactive: > 100 µM
7 | Oc1cc2c3c(c1)c1cc4c(cc1c[n+]3CC2)OCO4 | inactive: 3.61 µM
8 | CC(=O)O[C@H]1C(=O)[C@@]2(C)[C@H]([C@H](OC(=O)c3ccccc3)[C@]3(O)C[C@H](OC(=O)[C@H](O)[C@@H](NC(=O)C(C)(C)C)c4ccccc4)C(C)=C1C3(C)C)[C@]1(OC(C)=O)CO[C@@H]1C[C@@H]2O | active: 0.232 µM
9 | Cn1c(=O)oc2cc(C(=O)CSC(=S)N3CCCCCC3)ccc21 | inactive: > 100 µM
10 | C[C@@]1(O)C[C@@H](N2C(=O)O[C@@H](c3ccccc3)[C@H]2c2ccccc2)[C@@H]1COCc1ccccc1 | inactive: 28.9 µM
11 | CC(NC(=O)OC(C)(C)C)C(=O)NC1CCCC1 (stereo unspecified) | inactive: > 100 µM
12 | Cc1cc(NS(=O)(=O)c2ccc(NC(=O)c3ccc(Cl)c4c(Nc5ccc(S(=O)(=O)N=C(N)N)cc5)c5ccccc5nc34)cc2)no1 | inactive: 34.5 µM
13 | Cc1cc(C)c(-c2noc(-c3ccc(Cl)cc3)c2C2=NCCCN2)c(C)c1 | inactive: 8.79 µM
14 | C[C@@]1(CBr)C[C@@](C)(/C=C/Cl)[C@@H](Cl)C[C@H]1Cl | inactive: 14.4 µM
15 | Nc1ccc(Oc2ccc(C34CC5CC(C3)CC(c3ccc(Oc6ccc(N)c(O)c6)cc3)(C5)C4)cc2)cc1O | active: 0.755 µM
16 | Cc1n(Cc2ccccc2)c2c([n+]1C)C(=O)c1ccccc1C2=O | active: 0.361 µM
17 | COC(=O)C#CC(N)=O | inactive: > 100 µM
18 | Cc1c2n(c(=O)[nH]c1=O)C1OC(CO)C(N=[N+]=[N-])C1O2 (stereo unspecified) | inactive: > 100 µM
19 | O=C(COc1ccc(Cl)c(Cl)c1)Nc1ccc[n+](Cc2ccc(S(=O)(=O)F)c(Cl)c2)c1 | inactive: > 100 µM
20 | O=c1c(-c2ccc(O)cc2)coc2cc(OC3OC(CO)C(O)C(O)C3O)cc(O)c12 (stereo unspecified) | inactive: > 100 µM
21 | Cn1nnc2c3c(N(CCO)CCO)ccnc3ccc21 | inactive: 91 µM
22 | Cc1cc(NCCCCCCNc2cc(C)nc3cc(N(C)C)ccc23)c2ccc(N(C)C)cc2n1 | inactive: 61.2 µM

Row | SMILES | GI50
23 | Nc1ncc(N)c(NCC2(CO)CC(CCc3ccccc3)C2)n1 (stereo unspecified) | inactive: 14.6 µM
24 | CC1=CCC(C)=Nc2nc3ccccc3n21 | inactive: > 100 µM
25 | O=c1cc(-c2ccccc2)[nH]c2ccc(S)cc12 | inactive: 69.3 µM
26 | O=C(Nc1cccc2nsnc12)c1cc2c(cc1Cl)Sc1nccn1S2(=O)=O | inactive: 2.58 µM
27 | Oc1cc(-c2cccc(Cl)c2)nc2cc3c(cc12)OCO3 | inactive: 1.16 µM
28 | CCOC(=O)c1nc2ccccc2nc1Oc1cc(OC)c(OC)c(OC)c1 | inactive: > 100 µM
29 | O=C(O)c1ccccc1-c1ccccc1C(=O)Nc1ccc2c(c1)nc(O)c1ccccc12 | inactive: > 100 µM
30 | O/N=C1/CC2(N3CCOCC3)C3CC/C(=N\O)C2CC1(Cc1ccccc1)C3 (stereo unspecified) | inactive: > 100 µM
31 | COc1ccc(-c2c(C#N)c(-c3ccccc3)n(NS(=O)(=O)c3ccccc3)c(=O)c2C#N)cc1 | inactive: > 100 µM
32 | NC(=S)N/N=C/C(=C/Nc1ccccc1)[N+](=O)[O-] | inactive: > 100 µM
33 | Cc1ccc(S(=O)(=O)NC(=O)C2S(=O)(=O)OCCOS2(=O)=O)cc1 | inactive: > 100 µM
34 | O=C1C=C(NCCc2ccc(O)cc2)C(=O)C=C1NCCc1ccc(O)cc1 | inactive: > 100 µM
35 | O=C1NCC2(CCN(CCCC3(c4ccc(F)cc4)OCCO3)CC2)N1c1ccccc1 | inactive: > 100 µM
36 | COC(=O)C1Cc2c([nH]c3ccccc23)C(c2cccc(O)c2)N1 (stereo unspecified) | inactive: 27.8 µM
37 | Cc1cc(C)nc(NS(=O)(=O)c2ccc(NC(=O)c3cccc4c(Nc5ccc(S(N)(=O)=O)cc5)c5ccccc5nc34)cc2)n1 | inactive: 14.8 µM
38 | C=CCOn1c(C=C)nc2ccc(C)cc21 | inactive: 18.6 µM
39 | C/C=C(\C)C(=O)OC1C2C(C)C(=O)OC2C(O)C(C)C2C=CC(=O)C21C (stereo unspecified) | inactive: 13.1 µM
40 | NNC(=S)N1CCN(C(=S)NN)CC1 | inactive: 70.8 µM
41 | C[C@]12CC[C@H]3[C@@H](CC=C4C[C@@H](O)CC[C@@]43C)[C@@H]1C/C(=C\c1ccc([N+](=O)[O-])cc1)[C@@H]2O | inactive: 10.6 µM
42 | Cc1c(CN2CCOCC2)c(CN2CCOCC2)c(C)n1-c1ccc(Cl)cn1 | inactive: > 100 µM
43 | CN(/N=C/c1ccnc2ccccc12)c1c([N+](=O)[O-])cc([N+](=O)[O-])cc1[N+](=O)[O-] | inactive: > 100 µM
44 | Cc1cc2c(cn1)C(=O)OCC2 | inactive: > 100 µM

Row | SMILES | GI50
45 | N#C[C@H](OC1OC(COC2OC(CO)C(O)C(O)C2O)C(O)C(O)C1O)c1ccccc1 (stereo partly specified) | inactive: > 250 µM
46 | COc1ccc(NC(=S)Nc2c(C)n(C)n(-c3ccccc3)c2=O)cc1 | inactive: > 100 µM
47 | COc1ccc2c3c(c(C(=O)c4ccccc4)oc13)CCC2 | inactive: > 100 µM
48 | CC1OC(OCC2COC(O)(Oc3c(-c4ccc(O)c(O)c4)oc4cc(O)cc(O)c4c3=O)C(O)C2O)C(O)C(O)C1O (stereo unspecified) | inactive: > 100 µM
49 | CC1=C(C)C(=O)O[C@@H]([C@](C)(O)[C@]2(O)CC[C@@]3(O)[C@@H]4C[C@H]5O[C@]56[C@@H](O)C=CC(=O)[C@]6(C)[C@H]4CC[C@]23C)C1 | inactive: 1.16 µM
50 | Clc1ccccc1-c1nnc2c(-c3ccccc3)nc3ccccc3n12 | inactive: 44.2 µM
51 | O=C(CSC1=NC(=O)C2(NN1)c1ccccc1-c1ccccc12)NC(=S)Nc1ccccc1 | inactive: > 10 µM
52 | CSc1cnn(CCC#N)c(=O)n1 | inactive: > 100 µM
53 | CC12c3c4cccc3Oc3cc(N)cc(c31)Oc1cc(N)cc(c12)O4 | inactive: 5.6 µM
54 | CC1CCCC2=C1C(c1ccc(Cl)cc1)n1c(s/c(=C\c3ccc(Cl)cc3)c1=O)=N2 (stereo unspecified) | inactive: > 100 µM
55 | Cc1cc2c(c(C(=O)NCC(=O)N[C@@H](C)C(=O)OCc3ccccc3)c1)Oc1c(cc(C)cc1C(=O)NCC(=O)N[C@@H](C)C(=O)OCc1ccccc1)S2 | inactive: > 100 µM
56 | Cc1cc(Cc2cc(C)c(NC(=O)C(=O)C3C(=O)NC(=S)NC3=O)c(C(C)C)c2)cc(C(C)C)c1NC(=O)C(=O)C1C(=O)NC(=S)NC1=O | inactive: > 100 µM
57 | CCOC(=O)CC(NCc1ccc(/N=C/c2nc3ccc(C(F)(F)F)cc3nc2-c2ccccc2)cc1)C(=O)OCC (stereo unspecified) | inactive: > 100 µM
58 | S=C(Nc1ccc(Cl)cc1)c1ccc(CN2CCCCC2)s1 | active: 0.0617 µM
59 | C/C=C/C[C@@H](C)C(=O)C1C(=O)N[C@@H](C(C)C)C(=O)N(C)CC(=O)N(C)[C@@H](CC(C)C)C(=O)N[C@@H](C(C)C)C(=O)N(C)[C@@H](CC(C)C)C(=O)N[C@@H](C)C(=O)N[C@@H](C)C(=O)N(C)[C@@H](CC(C)C)C(=O)N(C)[C@@H](CC(C)C)C(=O)N(C)[C@@H](C(C)C)C(=O)N1C (stereo partly specified) | inactive: 7.59 µM
60 | O=[N+]([O-])C(/C=N/Nc1ccccc1)/C=N/Nc1ccccc1 | inactive: > 100 µM
61 | CC(=O)C1C(=O)C(=O)N(c2ccc(Br)cc2)C1=O (stereo unspecified) | inactive: > 100 µM
62 | CC1C(OC2O[C@@H]3O[C@@]4(C)CC[C@H]5[C@H](C)CC[C@@H](C2C)[C@@]35O4)O[C@@H]2O[C@@]3(C)CC[C@H]4[C@H](C)CC[C@@H]1[C@@]24O3 (stereo partly specified) | inactive: > 50 µM
63 | CN(C)c1n/c(=N/c2ncn[nH]2)ss1 | inactive: > 100 µM
64 | CCOc1cc(NC(C)=O)ccc1C(=O)N/N=C/c1ccco1 | inactive: > 100 µM
65 | O=c1cc(N2CCCC2)[nH]c(=O)n1-c1ccccc1 | inactive: > 100 µM
66 | CC1(C)CC23C4COC(=O)C2CCC1C3CC4=O (stereo unspecified) | inactive: 25.3 µM

Row | SMILES | GI50
67 | OC(Cc1cccnc1)(c1ccccc1)c1ccccc1 | inactive: > 100 µM
68 | CC1(C)OC(=O)C(c2cccs2)C(=O)O1 | inactive: > 100 µM
69 | CC12CCC3c4ccc(O)cc4CCC3C1C/C(=N\O)C2O (stereo unspecified) | inactive: > 100 µM
70 | S=C(N/N=C\C(=N/NC(=S)N1CCCCC1)c1ccccc1)N1CCCCC1 | inactive: 1.9 µM
71 | CC(=O)OCC1OC(n2c(-c3ccccc3)c(/N=N/c3ccc(C)cc3)c(C)c(C#N)c2=S)C(OC(C)=O)C(OC(C)=O)C1OC(C)=O (stereo unspecified) | inactive: > 100 µM
72 | N=C(N)NCCNC(=N)N | inactive: > 100 µM
73 | CCCCc1ccc(C#CC#Cc2ccc(CCCC)s2)s1 | inactive: > 100 µM
74 | C/C(=C\COP(=O)(O)OP(=O)(O)O)CC/C=C(\C)CNc1ccc([N+](=O)[O-])cc1 | inactive: > 100 µM
75 | CC(C)N1C=[N+](C(C)C)CC1 | inactive: > 100 µM
76 | Cn1c2ccccc2n2c3ccccc3c(=S)c(C#N)c12 | inactive: > 100 µM
77 | Clc1ccc2c(c1)-c1c3c(nn1-c1ccccc1)-c1ccccc1SC3O2 (stereo unspecified) | inactive: > 100 µM
78 | CCOc1ccc(N2C(=O)NC3(c4ccccc4)N(C)C(=O)N(C)C23c2ccccc2)cc1 (stereo unspecified) | inactive: > 100 µM
79 | Cc1ccc(S(=O)(=O)NC2C(=O)c3ccccc3C(=O)C2n2cnc3ccccc32)cc1 (stereo unspecified) | inactive: 35.8 µM
80 | O=C1CC(n2cccc2)c2c(Br)sc(Br)c21 (stereo unspecified) | inactive: 19.1 µM
81 | NS(=O)(=O)c1ccc(NC(=S)NC(=O)Nc2ccc(Cl)c(Cl)c2)cc1 | inactive: 16.4 µM
82 | O=C(Nc1ccc2oc(=O)c(C(=O)O)cc2c1)Oc1ccccc1 | inactive: > 100 µM
83 | Cc1ccc(NC2=CC(=O)C(NO)c3ccccc32)cc1 (stereo unspecified) | inactive: 11.2 µM
84 | COC(=O)C(C)(/N=C/c1ccccc1)c1ccccc1 (stereo unspecified) | inactive: > 100 µM
85 | COc1cc(/C=C2\N=C(c3ccccc3)N(/N=C3\C(=O)Nc4ccccc43)C2=O)cc(OC)c1OC | inactive: > 100 µM
86 | Cc1ccccc1Nc1nc2ccccc2nc1NS(=O)(=O)c1ccccc1 | inactive: > 100 µM
